Assay results reported in PubChem BioAssay AID686978 (National Center for Advancing Translational Sciences (NCATS), 2013).
Out of some 420,000 compounds screened, about 64,000 (15%) were called active. Inconclusive means that the source gave no clear call. Such entries were picked first, then a sample of the others. Calls come from the whole dose curve; as a rule, active = well fitted inhibition curve with a large enough effect; inconclusive = small, poorly fitted or top-dose-only effect; inactive = flat fitted curve, though single readings scatter. Potencies of inconclusive entries are left out as doubtful fits.

Assay: qHTS for Inhibitors of human tyrosyl-DNA phosphodiesterase 1 (TDP1): qHTS in cells in absence of CPT; note: nearly all actives have a fitted effect of over 55% in size
Conditions: DT40 Tdp1-/- hTDP1 cells, no CPT, ATP luminescence, 48 h; activity change, negative = growth inhibition: at 46.2 µM (top of the series) unless noted
Method in brief: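 A cellular qHTS used chicken DT40 cells lacking endogenous Tdp1 but carrying stably transfected human TDP1. Compounds were applied without camptothecin, and cell growth kinetics were judged by ATP-dependent luminescence after ≥48 hr.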
% is set by controls: 0 for no effect and ±100 for the full control effect; potency is the fitted concentration of half-maximal effect; tags give direction and shape of the fitted curve.

Structure (SMILES) | Potency | activity change, negative = growth inhibition
COc1ccc2cc3cc(C(=O)NCCc4ccccc4)sc3nc2c1Cl | active: 16.4 µM | 
Cc1ccc(OCc2cc(C(=O)N(C)CCc3ccccn3)no2)cc1C | inconclusive [inhibitor, single point] | 
CCc1ccc(S(=O)(=O)c2c[nH]c3cc(OC)c(OC)cc3c2=O)cc1 |  | inconclusive: -31.5% [inhibitor]
COC(=O)CSC1=C(C#N)C(c2cccc(F)c2)CC(=O)N1 (stereo unspecified) | active: 23.1 µM | 
C=CC[C@H]1CC(Cc2ccccc2)=C[C@H](CC=C)N1 | active: 18.4 µM | 
Cc1cc(C)c(C)c(S(=O)(=O)N2CCN(C(=O)C3CCC3)CC2)c1C | inconclusive [inhibitor, partial curve] | 
CCOC(=O)c1cnc(-c2ccccc2)nc1Oc1ccc(OC)cc1 | inactive | 
Nc1nc(C(F)(F)F)cc(=O)n1N | inactive | 
CC(C)(C)C(=O)CSc1ncnc2sc3c(c12)CCC3 | inconclusive [inhibitor, single point] | 
CCc1cc(/C(Cc2cscn2)=N\O)c(O)cc1O | inconclusive [inhibitor, partial curve, poor fit] | 
COc1ccc(-c2cc(C(F)(F)F)nc(NCc3ccccc3)n2)cc1 | inconclusive [inhibitor, single point] | 
C=CCNC(=O)/C(C#N)=C/c1c(N2CCN(c3cccc(Cl)c3)CC2)nc2c(C)cccn2c1=O | inconclusive [inhibitor, single point] | 
CN(C)c1ccc(S(=O)(=O)NCC(=O)NCc2ccccc2)cc1[N+](=O)[O-] | inconclusive [inhibitor, single point] | 
CC(=O)c1cnc2c(-c3ccc(Cl)cc3)cnn2c1C | inconclusive [inhibitor, single point] | 
N#Cc1ccc(-c2nc3ccc(Cl)cn3c2Cc2ccccc2)cc1 | inconclusive [inhibitor, single point] | 
CSc1ccccc1NC(=O)CNCCCN1CCOCC1 |  | inconclusive: -18.1% [inhibitor]
COc1cccc(NC(=O)C(=O)NCC(c2ccc3c(c2)OCO3)N2CCOCC2)c1 (stereo unspecified) | active: 16.4 µM | 
COC(=O)c1cc(OC)c(OC)cc1NC(=O)c1c(-c2ccccc2)noc1C | inconclusive [inhibitor, single point] | 
CCc1nnc(NS(=O)(=O)c2ccc(NC(=S)NC(=O)/C=C/c3ccc(C(C)C)cc3)cc2)s1 | inactive | 
O=C(NC(=S)Nc1ccccc1O)c1ccc(-c2ccc(Cl)cc2)o1 | active: 16.4 µM | 
Fc1ccc(C(Nc2ccc(Cl)c(C(F)(F)F)c2)c2nnc(-c3ccccc3)o2)cc1 (stereo unspecified) | inconclusive [inhibitor, single point] | 
C=CCn1c(SCC(=O)OCC)nc2cc(C(=O)NCc3ccco3)ccc2c1=O | inconclusive [inhibitor, partial curve] | 
Cc1ccc(S(=O)(=O)N2CCCCC2CCNC(=O)C(=O)NCc2ccco2)cc1 (stereo unspecified) | active: 7.31 µM | 
C[C@H]1Cn2cnc(C(=O)N[C@@H](Cc3c[nH]c4ccccc34)C(=O)OC(C)(C)C)c2C(=O)N1 | inconclusive [inhibitor, single point] | 

Structure (SMILES) | Potency | activity change, negative = growth inhibition
NC(=S)N=Nc1c(O)n(Cc2ccc(F)cc2)c2ccccc12 | inconclusive [inhibitor, single point] | 
Cc1nnn(C23CC4CC(CC(CC(=O)Nc5ccc(C)c(C)c5)(C4)C2)C3)n1 | inconclusive [inhibitor, single point] | 
CN(Cc1ccccc1)C(C(=O)NC1CCCCC1)c1ccc(Cl)cc1 (stereo unspecified) | inactive | 
COc1cc(OC)c(NC(=O)CCn2cccn2)cc1Cl | inactive | 
CCC1(CC)NC(=O)N(CC(=O)OCC(=O)Nc2ccccc2[N+](=O)[O-])C1=O | inconclusive [inhibitor, single point] | 
O=C(CSc1nnc(-c2cccnc2)o1)Nc1ccccc1Br | inactive | 
COc1ccc(S(=O)(=O)NCc2ccncc2)cc1NC(=O)c1ccccc1C | inactive | 
C#CCSC1=C(C#N)C(c2cccs2)C(C(=O)OCC)=C(C)N1 (stereo unspecified) | inconclusive [inhibitor, partial curve, poor fit] | 
CCOC(=O)CC1(NC(=O)c2cc(COc3cncc(Cl)c3)on2)CCCCC1 | active: 20.6 µM | 
Cc1ccc(N2C(=O)c3ccccc3NC2C(C)Cc2ccc3c(c2)OCO3)cc1 (stereo unspecified) | inconclusive [inhibitor, single point] | 
CC1CCCC(C)N1CC(O)COc1c(F)cc(Br)cc1F (stereo unspecified) | inconclusive [inhibitor, single point] | 
O=C1NC[C@H](c2ccccc2)OC(=O)[C@@H](Cc2ccc(F)cc2)CC/C=C/C[C@H]1CC(=O)N(CCO)Cc1ccccc1 | active: 11.6 µM | 
Cc1ccc2cccnc2c1NC(=S)NC(=O)c1ccccc1 | inactive | 
O=C(Nc1cccc(Cl)c1)C1CCCN(S(=O)(=O)c2cnc[nH]2)C1 (stereo unspecified) | inconclusive [inhibitor, single point] | 
O=S(=O)(CC(O)CS(=O)(=O)c1ccc(Cl)cc1)c1ccccc1 (stereo unspecified) | inactive | 
C=CC[C@H](CC(=O)OC(C)(C)C)C(=O)OC[C@H]1CCCN1C(=O)[C@@H](CC=C)CC(=O)N(CCO)Cc1ccccc1 | active: 20.6 µM | 
COc1ccc(NC(=O)N2CCN(c3cccc(C(F)(F)F)c3)CC2)cc1 | active: 7.31 µM | 
COc1ccc(-c2cnnc(N/N=C/c3ccc(O)c(O)c3)n2)cc1 | active: 9.2 µM | 
COCCN(C(=O)COC(=O)c1ccccc1Nc1ccccc1)c1c(N)n(Cc2ccccc2)c(=O)[nH]c1=O | inconclusive [inhibitor, single point] | 
CCN1C(=O)[C@H]2[C@@H](c3ccc(-c4ccc(Cl)c(Cl)c4)cc3)N[C@@](Cc3ccccc3)(C(=O)OC)[C@H]2C1=O | active: 14.6 µM | 
COc1cc(-c2noc(-c3ccc(N4CCOCC4)c([N+](=O)[O-])c3)n2)cc(OC)c1OC | active: 5.17 µM | 
O=S(CC(O)(c1ccccc1)c1ccccc1)CC(O)(c1ccccc1)c1ccccc1 | active: 18.4 µM | 
Cc1ccc(Cc2c(C)nc3nc(SCC(=O)NCc4ccco4)nn3c2C)cc1 | active: 4.61 µM | 
CCC(NC(=O)c1[nH]c(C)c(C(C)=O)c1C)c1ccc(Br)cc1 (stereo unspecified) | active: 14.6 µM | 

Structure (SMILES) | Potency | activity change, negative = growth inhibition
COc1cccc(C(=O)C(=O)N2CCN(C(=O)OCc3ccccc3)CC2)c1 | inconclusive [inhibitor, single point] | 
Cc1[nH]c2ccc(F)cc2c(=O)c1SC(F)(F)C(F)C(F)(F)F (stereo unspecified) | inconclusive [inhibitor, single point] | 
CN(C(=O)c1cccc(NC(=O)Cc2ccc(NC(=O)C3CCN(C(=O)c4ccccc4)CC3)cc2)c1)C1CCCCC1 | inconclusive [inhibitor, single point] | 
CCN(CCCNC(=O)CSc1cc(=O)n(C)c2cc(Cl)ccc12)c1cccc(C)c1 | inconclusive [inhibitor, single point] | 
CCN(Cc1ccccc1)S(=O)(=O)c1ccc(S(=O)(=O)N(Cc2cccc(OC)c2)CC2CCCO2)cc1 (stereo unspecified) | inconclusive [inhibitor, single point] | 
Cc1ccc(OCC(=O)N(Cc2ccco2)Cc2ccco2)cc1 | active: 16.4 µM | 
CN1CCN(C(=O)c2cccc(NS(=O)(=O)c3ccc(Br)cc3)c2)CC1 | inactive | 
COc1cc(CC(=O)OCC(=O)c2ccc(F)cc2)cc(OC)c1OC | inactive | 
COC(=O)c1ccc2nc(-c3ccc(C#N)cc3)c(Cc3cccc(F)c3)n2c1 | active: 18.4 µM | 
O=C(Cc1ccccc1)NCCCNC(=O)Cc1ccccc1 | inactive | 
Cc1cc(Cl)ccc1OCC(=O)NCCCn1ccnc1 | inactive | 
CCc1cccc(CC)c1N(COC)C(=O)Cn1nnc2ccccc21 | inconclusive [inhibitor, single point] | 
CN(C)C=NC(=O)c1cc(C(=O)c2ccc(Cl)cc2)c[nH]1 |  | inconclusive: -31.1% [inhibitor]
CC1(C)CC(=O)C(C=NCCO)=C(O)C1 | inconclusive [inhibitor, partial curve] | 
Cc1ccc(-c2nc(Nc3cccc(O)c3)c3ccccc3n2)cc1 | active: 23.1 µM | 
COc1cc(C2/C(=C(\O)c3ccc4c(c3)CC(C)O4)C(=O)C(=O)N2Cc2ccco2)ccc1O (stereo unspecified) | inactive | 
COc1ccccc1N1CCN(Cc2cc(=O)c(OCC(=O)NC3CCCC3)co2)CC1 | inactive | 
O=C1NC(c2ccc(-c3ccccc3[N+](=O)[O-])o2)C(C(=O)c2ccc(Cl)cc2)C(O)(C(F)(F)F)N1 (stereo unspecified) | inconclusive [inhibitor, single point] | 
COc1ccc(/C=C2/SC(=O)N(CC(O)Cn3c4ccccc4c4ccccc43)C2=O)cc1 (stereo unspecified) | inconclusive [inhibitor, single point] | 
CCc1ccccc1NC(=O)C1CC(c2ccc(F)cc2)=NO1 (stereo unspecified) | inactive | 
O=C(C1CC1)N(CCN(C(=O)C1CC1)c1ccccc1)c1ccccc1 | inconclusive [inhibitor, partial curve] | 
CCOc1ccc(NC(=O)C2CCCN(S(=O)(=O)c3c(C)noc3C)C2)cc1 (stereo unspecified) | inconclusive [inhibitor, partial curve] | 
CCC(OCC(O)CN1CCN(CCN2C(=O)c3cccc4cccc(c34)C2=O)CC1)c1ccccc1 (stereo unspecified) | active: 6.51 µM | 
